# Measured values: PubChem BioAssay AID588855 (National Center for Advancing Translational Sciences (NCATS), 2011)
# Among all 410,000 compounds or so, about 5,000 (1.2%) were called active. Inconclusive means that the source gave no clear call. Such entries were picked first, then a sample of the others. Calls follow the shape of the dose curve; as a rule, active = well fitted inhibition curve with a large enough effect; inconclusive = small, poorly fitted or top-dose-only effect; inactive = no such curve, though single readings can be large or run the other way. Where the call is inconclusive, the potency comes from a doubtful curve fit.
# Test: qHTS for Inhibitors of TGF-b; also: nearly all actives have a fitted effect of over 65% in size
# Conditions: HepG2 CAGA-GFP TGF-b/SMAD3 reporter, GFP fluorescence, 18 h, TGF-beta stimulated, 500 pg/mL final; series mostly up to 46.1 µM; activity, negative = inhibition: at the top concentration
# Outline: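 TGF-beta reporter screen: HEPG2 CAGA-GFP, 1% FBS, 500 pg/mL TGF-beta final, 18 h; per-cell GFP summed per well; curves fitted and categorized by class.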
# % is scaled to controls: 0 for no effect and ±100 for the full control effect; potency is read from the fitted curve at half-maximal effect; tags tell the direction and shape of the fitted curve.
Compound,Potency,"activity, negative = inhibition"
Cc1ccc(Nc2cc(=O)[nH]c(=O)[nH]2)cc1Cl,"inconclusive: 28.2 µM [inhibitor, single point]",–
O=C(COC(=O)/C=C/c1ccc(Cl)cc1)NC(=O)NCc1ccccc1,–,inactive: -21.1%
Cc1cc(C)n(C(C[N+](=O)[O-])c2ccc(Cl)cc2)n1 (configuration not stated),"inconclusive: 14.1 µM [inhibitor, single point]",–
c1ccc(SCCc2ccncc2)cc1,"inconclusive: 0.562 µM [inhibitor, partial curve, poor fit]",–
CC1=NN(c2cccc(C(=O)O)c2)C(=O)/C1=C\C=C/c1ccccc1,"inconclusive: 22.4 µM [inhibitor, single point]",–
Nc1c(N(CCC2=CCCCC2)C(=O)COc2ccc(F)cc2Cl)c(=O)[nH]c(=O)n1Cc1ccccc1,active: 3.16 µM,–
CC1(C(=O)NCc2cccc(Cl)c2)Cc2c(-c3ccccc3)ccnc2O1 (configuration not stated),–,inactive: 1.08%
CCNC(=S)N/N=C/c1ccc(C(=O)O)cc1,–,inactive: -2.87%
Cc1oc(-c2ccccc2F)nc1Cn1c(SCc2cccc(Cl)c2)nc2ccncc21,active: 17.8 µM,–
COCCN1CCN(C(=O)C2CCC(=O)N(Cc3ccccc3OC)C2)CC1 (configuration not stated),–,inactive: -6.92%
Cc1nc(NC(=O)c2ccco2)sc1-c1csc(Nc2ccc(Cl)cc2Cl)n1,–,inactive: -30.2%
CCc1nn(CC(=O)NCC(C)c2ccccc2)c(=O)c2cc3c(OC)cccc3n12 (configuration not stated),–,inactive: -18.7%
O=C(Cn1cnc([N+](=O)[O-])c1)Nc1cc(Oc2ccc(Cl)cc2Cl)cc([N+](=O)[O-])c1,"inconclusive: 35.5 µM [inhibitor, single point]",–
COCCn1c(=O)[nH]c2cc(C(=O)N3CCN(c4ccc(F)cc4)CC3)ccc2c1=O,"inconclusive: 11.2 µM [inhibitor, partial curve]",–
CC1CCC(C(C)C)C(OC(=O)CSc2nnc(N)s2)C1 (configuration not stated),–,inactive: 2.74%
O=[N+]([O-])c1ccc(S(=O)(=O)NCCCc2ccccc2)cc1,"inconclusive: 11.2 µM [inhibitor, partial curve, poor fit]",–
CCN1C(=O)N/C(=C/c2ccc(C)o2)C1=O,–,inactive: -4.55%
COc1cc2c(cc1OC)[C@@H]1Cc3cc4c(cc3[C@H](C2)N1C)OCO4,–,inactive: 8.83%
Cc1cc(-n2c(C)nc3ccccc3c2=O)ccc1NC(=O)c1cccc([N+](=O)[O-])c1C,–,inactive: -0.0419%
COc1cc(/C=C/C(=O)NCCN2CCOCC2)cc(OC)c1OC,–,inactive: -14.2%
C=CCC(Nc1ccccc1)C12C=CC(O1)C(C(=O)OC)=C2C(=O)OC (configuration not stated),"inconclusive: 17.8 µM [inhibitor, partial curve, poor fit]",–
O=C(Nc1cccc(-c2nc3ccccc3s2)c1)c1cc(=O)c2ccccc2o1,"inconclusive: 3.55 µM [inhibitor, full curve, poor fit]",–
CCOc1ccc(C(C)NC(=O)c2ccccc2F)cc1 (configuration not stated),–,inactive: 5.22%

Compound,Potency,"activity, negative = inhibition"
CCNC(=O)CC1SC(=Nc2ccc(Cl)cc2)N(CC)C1=O (configuration not stated),"inconclusive: 0.631 µM [inhibitor, full curve, poor fit]",–
O=C(COC(=O)/C=C/c1cccs1)Nc1cccc(S(=O)(=O)N2CCOCC2)c1,"inconclusive: 35.5 µM [inhibitor, single point]",–
Clc1ccc(Cl)c(OCCCCNCc2ccccc2)c1,"inconclusive: 35.5 µM [inhibitor, partial curve, poor fit]",–
Cc1cc(C)cc(NC(=O)[C@H](Cc2c[nH]c3ccccc23)NC(=O)[C@@H]2Cc3ccccc3CN2)c1,"inconclusive: 22.4 µM [inhibitor, partial curve, poor fit]",–
Cc1cccc(NC(=O)CN2CCN(C(=O)CN3C(=O)NC4(CCCCC4C)C3=O)CC2)c1C (configuration not stated),–,inactive: -12.9%
O=C1Nc2ccc(Br)cc2/C1=C/C(=O)c1ccc2c(c1)OCO2,"inconclusive: 35.5 µM [inhibitor, single point]",–
CS(=O)(=O)N(CC(=O)Nc1ccccc1Sc1ccccc1)C1CCCCC1,"inconclusive: 35.5 µM [inhibitor, single point]",–
CCc1nnc(NC(=O)CSc2nnc(COc3ccccc3C)o2)s1,–,inactive: -1.31%
O=S(=O)(c1ccc2c(c1)C(=NO)c1cc(S(=O)(=O)N3CCCCC3)ccc1-2)N1CCCCC1,"inconclusive: 3.98 µM [inhibitor, full curve, poor fit]",–
COc1ccc(N(C)C(=O)c2ccc3c(Cl)c4c(nc3c2)CCCC4)c(OC)c1,"inconclusive: 35.5 µM [inhibitor, partial curve, poor fit]",–
CC(=O)Nc1cccc(C(=O)NN2C(=O)NC3(CCC(C)CC3)C2=O)c1 (configuration not stated),–,inactive: 2.07%
O=C(Nc1ccc2oc(-c3ccc4ccccc4c3)nc2c1)c1cccc(Cl)c1Cl,–,inactive: -10.8%
COc1cccc(-c2csc(N3CCN(C(=O)C4CCCCC4)CC3)n2)c1,"inconclusive: 8.91 µM [inhibitor, partial curve, poor fit]",–
COc1ccc(-c2n(Cc3ccccc3)c3ccccc3[n+]2Cc2ccccc2)cc1,active: 7.94 µM,–
CSc1ccc(CCNC(=O)CN2C(=O)COc3ccc(S(=O)(=O)N4CCCC4)cc32)cc1,"inconclusive: 17.8 µM [inhibitor, single point]",–
COc1ccc(C(=O)c2ccc(OC)c(OC)c2)cc1OC,"inconclusive: 35.5 µM [inhibitor, single point]",–
CCN(CC)CCNC(=O)c1ccc(NC(=O)c2cn(-c3ccccc3)nc2-c2cccs2)cc1,"inconclusive: 35.5 µM [inhibitor, single point]",–
COc1ccccc1OCC(=O)Nc1ccncc1,–,inactive: 8%
O=C(Nc1ccc2c(c1)OCO2)c1c[nH]c(=O)n(-c2ccc(F)cc2)c1=O,"inconclusive: 35.5 µM [inhibitor, single point]",–
Cc1ccc(NC(=O)c2ccc(Cl)c(N3C(=O)C=CC3=O)c2)cc1,"inconclusive: 35.5 µM [inhibitor, single point]",–
O=C1OC[C@H]2CCCN2C(=O)[C@@H](CC(=O)N(CCO)Cc2ccccc2)C/C=C\CC[C@H]1Cc1ccc(F)cc1,"inconclusive: 7.08 µM [inhibitor, partial curve, poor fit]",–
Fc1ccc(-c2nc3ccc(Cl)cn3c2Cc2ccccc2)cc1,"inconclusive: 14.1 µM [inhibitor, partial curve]",–
Fc1ccccc1/C=C1\CCCC2=C1Nc1nnnn1C2c1ccccc1F (configuration not stated),"inconclusive: 2.82 µM [inhibitor, full curve, poor fit]",–

Compound,Potency,"activity, negative = inhibition"
Cn1c(=O)c2c(ncn2CC(=O)Nc2ccc3c(c2)OCO3)n(C)c1=O,–,inactive: 2.59%
O=C(CN1CCN(c2ccccn2)CC1)Nc1ccc(OCc2ccccc2)cc1,"inconclusive: 17.8 µM [inhibitor, single point]",–
O=C(CNC(=S)N(Cc1ccccc1)Cc1ccccc1F)NCCc1ccc(Cl)cc1,"inconclusive: 35.5 µM [inhibitor, single point]",–
O=C(COC(=O)/C=C/c1cn(-c2ccccc2)nc1-c1cccnc1)Nc1ccc(Cl)cc1Cl,"inconclusive: 6.31 µM [inhibitor, partial curve, poor fit]",–
Cc1c([N+](=O)[O-])c([N+](=O)[O-])nn1CC(=O)NCc1cccnc1,"inconclusive: 0.355 µM [inhibitor, full curve, poor fit]",–
COCCNC(=O)C1(C)CCCN(C(=O)c2cc(OC)c(OC)c(OC)c2)C1 (configuration not stated),–,inactive: -0.486%
OC[C@@H]1[C@@H](c2ccc(Cl)cc2)C(c2ccccc2)=NN1c1ccccc1,"inconclusive: 22.4 µM [inhibitor, single point]",–
CC(=O)S[C@@H]1CC2=CC(=O)CC[C@]2(C)[C@H]2CC[C@@]3(C)[C@@H](CC[C@@]34CCC(=O)O4)[C@H]12,"inconclusive: 35.5 µM [inhibitor, single point]",–
Cc1ccccc1OC1C(=O)N(Cc2ccc3c(c2)OCO3)C1c1sccc1C (configuration not stated),"inconclusive: 35.5 µM [inhibitor, single point]",–
COC(=O)c1ccc(NC(=S)N2CCN(Cc3ccc(Cl)cc3)CC2)cc1,–,inactive: 0.409%
CCOc1ccc(NC(=O)c2cccc3c(=O)c4c([nH]c23)CCCC4)cc1,–,inactive: 4.83%
O=C(Nc1nc(-c2ccc3c(c2)OCCO3)cs1)c1ccc(S(=O)(=O)N2CCCCC2)cc1,"inconclusive: 2.82 µM [inhibitor, full curve, poor fit]",–
COc1cccc(C(=O)NN/C(C)=C/C(=O)C(F)(F)C(F)(F)C(F)(F)F)c1,"inconclusive: 35.5 µM [inhibitor, single point]",–
COC(=O)[C@]1(C)CCC[C@@]2(C)C3CC[C@@]4(C)C[C@]3(CCC21)CC4=NO (some centres not stated),"inconclusive: 15.8 µM [inhibitor, single point]",–
CCOC(=O)CN1CCC(C2(c3cc4ccccc4[nH]3)OCCO2)CC1,–,inactive: -7.54%
O=C(NCCC1=CCCCC1)c1coc(=O)c(Br)c1,"inconclusive: 12.6 µM [inhibitor, single point]",–
Cc1ccc(C(=O)c2cc([N+](=O)[O-])ccc2N2CCOCC2)cc1C,"inconclusive: 11.2 µM [inhibitor, partial curve]",–
O=C(NNC(=O)c1csc(-c2cccs2)n1)c1ccc(Cl)cc1,"inconclusive: 14.1 µM [inhibitor, partial curve]",–
Cc1ccc(NC(=O)N(Cc2c[nH]c3ccccc23)C2CCCCCC2)cc1C,"inconclusive: 1.41 µM [inhibitor, full curve]",–
CN(Cc1cccc2cnccc12)C(=O)CCc1nnc(CCc2ccccc2)o1,"inconclusive: 3.16 µM [inhibitor, single point]",–
CCOC(=O)C1=C(CNCc2ccc(F)cc2)NC(=O)NC1c1cccc([N+](=O)[O-])c1 (configuration not stated),"inconclusive: 8.91 µM [inhibitor, partial curve]",–
